Assay results as given in the BET-seq Pho4 binding data (Le et al. 2018).
The other results are listed elsewhere or left out. These are noisy estimates, calculated here from bound and input reads.

What follows are sequences tested against T1, Pho4 (S. cerevisiae) (UniProt P07270) (assay: relative binding free energy (BET-seq); higher = weaker binding). Details: reference: library average.
T1 sequence: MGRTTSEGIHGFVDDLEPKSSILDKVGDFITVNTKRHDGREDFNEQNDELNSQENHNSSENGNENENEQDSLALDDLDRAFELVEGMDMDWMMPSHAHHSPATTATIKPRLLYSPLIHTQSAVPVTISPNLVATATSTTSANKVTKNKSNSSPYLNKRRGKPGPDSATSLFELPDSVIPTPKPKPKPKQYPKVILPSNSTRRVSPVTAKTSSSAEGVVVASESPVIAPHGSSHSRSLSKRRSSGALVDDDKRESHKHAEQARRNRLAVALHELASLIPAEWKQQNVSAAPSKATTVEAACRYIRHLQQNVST

Sequence | relative binding free energy
GGAGGCACGTGGCGAG | -0.2 kcal/mol
GAGTACACGTGTCGGG | 0.1 kcal/mol
TACATCACGTGGTTTG | 0.16 kcal/mol
CGGTGCACGTGTCTGT | -0.05 kcal/mol
CTTGTCACGTGATGGC | 0.24 kcal/mol
CGGTGCACGTGGTCGG | -0.1 kcal/mol
AAAGACACGTGTTTTA | 0.09 kcal/mol
CGGTTCACGTGCGTGG | 0.18 kcal/mol
CCTGGCACGTGGGCGT | -0.32 kcal/mol
AACGGCACGTGTTTTT | -0.13 kcal/mol
GTATGCACGTGTGTAA | -0.07 kcal/mol
TGAGGCACGTGAAGTG | 0.3 kcal/mol
AGAGGCACGTGGGCGC | -0.22 kcal/mol
AGTGGCACGTGTATAG | -0.12 kcal/mol
TGTGTCACGTGGTTGA | 0.04 kcal/mol
TACGACACGTGGTTTG | -0.03 kcal/mol
TATGACACGTGTTTTT | 0.03 kcal/mol
GTTAACACGTGGCTGT | -0.03 kcal/mol
TCCAGCACGTGGGTTG | -0.09 kcal/mol
GTTCGCACGTGATTGT | -0.01 kcal/mol
GGATACACGTGGCTTG | 0.1 kcal/mol
GGCTCCACGTGAGGGG | 0.12 kcal/mol
TCGGACACGTGAGGGG | 0.33 kcal/mol

Sequence | relative binding free energy
GCGTGCACGTGTTTGT | 0.02 kcal/mol
TAGTGCACGTGTGTAG | 0 kcal/mol
TGCGCCACGTGGGGGC | -0.24 kcal/mol
TTATTCACGTGTAAGG | 0.23 kcal/mol
TATTGCACGTGTGAGG | 0.03 kcal/mol
TTTGCCACGTGCAGGT | -0.21 kcal/mol
GTTCGCACGTGGGAGG | -0.05 kcal/mol
GTTGACACGTGCCAGG | 0.04 kcal/mol
GGTGACACGTGGAGGC | 0.03 kcal/mol
AATTTCACGTGTTAGC | 0.29 kcal/mol
CGCGGCACGTGTTTAT | 0.03 kcal/mol
TGAGTCACGTGTATCG | 0.02 kcal/mol
ATGTTCACGTGGGCTG | 0.08 kcal/mol
CATTACACGTGATGGT | 0.26 kcal/mol
TTTATCACGTGAGGAA | 0.39 kcal/mol
GTACACACGTGGAGGG | -0.02 kcal/mol
GTTCTCACGTGAGGTC | 0.5 kcal/mol
GTTGTCACGTGAGCGA | 0.19 kcal/mol
GTCGACACGTGGGAGG | -0.09 kcal/mol
GTAAGCACGTGCTTGT | -0.12 kcal/mol
TCAATCACGTGGTATG | 0.05 kcal/mol
TTCGTCACGTGCAAGG | 0.24 kcal/mol
CGGGTCACGTGCAGTA | 0.14 kcal/mol

Sequence | relative binding free energy
TGTGCCACGTGAGGTA | 0.13 kcal/mol
TTGGGCACGTGGTCAC | -0.25 kcal/mol
AACGGCACGTGTTTTG | -0.19 kcal/mol
TGATTCACGTGGGGAC | 0.16 kcal/mol
TGGTACACGTGGTCAT | -0.03 kcal/mol
CGTTACACGTGGGGGA | -0.16 kcal/mol
TGTGCCACGTGGTCTT | -0.22 kcal/mol
GTTAACACGTGTATAG | 0 kcal/mol
GTAATCACGTGAGGTC | 0.37 kcal/mol
TTTTACACGTGCGAGT | -0.02 kcal/mol
GGGCGCACGTGTGTAG | -0.16 kcal/mol
CATGTCACGTGGGGTC | -0.11 kcal/mol
AGTTGCACGTGCCGTG | -0.1 kcal/mol
GGGGGCACGTGATTGA | 0.07 kcal/mol
TGGATCACGTGTGGGA | 0.29 kcal/mol
CTATTCACGTGTGTTT | 0.35 kcal/mol
GCTATCACGTGATGTG | 0.29 kcal/mol
GCGTTCACGTGGAGGC | 0.37 kcal/mol
CGGTGCACGTGGCCGG | -0.1 kcal/mol
GGTGTCACGTGGCCTG | -0.01 kcal/mol
AGGTTCACGTGTGTAA | 0.25 kcal/mol
TTTCGCACGTGGTTTA | -0.11 kcal/mol
GGGGACACGTGACTGG | 0.23 kcal/mol

Sequence | relative binding free energy
TCTATCACGTGGCGGT | -0.06 kcal/mol
TGTCCCACGTGGTTGT | -0.22 kcal/mol
CGTTTCACGTGTAGGG | 0.2 kcal/mol
TATGGCACGTGAACTG | 0.07 kcal/mol
CGGGACACGTGTTTAG | 0.05 kcal/mol
GCGTACACGTGGCGTG | 0.19 kcal/mol
GGTCGCACGTGGTAAG | 0 kcal/mol
AGGAGCACGTGCGGGT | -0.15 kcal/mol
AGTATCACGTGTACTT | 0.15 kcal/mol
CTGGGCACGTGAACTG | 0.29 kcal/mol
ACTGTCACGTGGTGGC | 0.07 kcal/mol
GATGGCACGTGGTTAC | 0.03 kcal/mol
TGGGACACGTGAGGGT | 0.23 kcal/mol
GTTGGCACGTGGCCGG | -0.2 kcal/mol
TGTGCCACGTGTGTAT | -0.09 kcal/mol
TGTACCACGTGGAGTT | -0.08 kcal/mol
CATGGCACGTGCAGGG | -0.2 kcal/mol
TCATCCACGTGTGGGG | 0.1 kcal/mol
TGTAACACGTGGGTAG | -0.11 kcal/mol
TGAGACACGTGGTTTT | 0.09 kcal/mol
GGGTCCACGTGGTGGT | -0.02 kcal/mol
ATATTCACGTGACTTG | 0.42 kcal/mol
CGGGTCACGTGCTGAG | 0.17 kcal/mol

Sequence | relative binding free energy
CTTATCACGTGTGGGA | 0.21 kcal/mol
TGGGTCACGTGATCGG | 0.22 kcal/mol
GATAACACGTGGGTAG | -0.15 kcal/mol
GGGGACACGTGCTTGT | -0.09 kcal/mol
TCTTACACGTGAGGAT | 0.37 kcal/mol
GGGTACACGTGCGTAT | -0.05 kcal/mol
GGGTCCACGTGATGTT | 0.16 kcal/mol
ATCTGCACGTGTTTGT | -0.1 kcal/mol
GTTAGCACGTGGTAAG | 0.07 kcal/mol
CGAGGCACGTGGCGTT | -0.03 kcal/mol
GTAGGCACGTGCGGTG | -0.27 kcal/mol
GGATACACGTGTAAGT | 0.09 kcal/mol
GTCTTCACGTGACGGG | 0.38 kcal/mol
TTGGACACGTGTTATC | 0.14 kcal/mol
TAGTGCACGTGGGTCC | -0.18 kcal/mol
GGTGACACGTGGATTA | 0.19 kcal/mol
TTCATCACGTGTCGGT | 0.1 kcal/mol
AATATCACGTGCAGTT | 0.17 kcal/mol
GGGTGCACGTGTAGAG | 0.01 kcal/mol
TGCTTCACGTGGCGTG | 0.31 kcal/mol
AGTTTCACGTGTCAAT | 0.2 kcal/mol
CGATTCACGTGTAGTT | 0.22 kcal/mol
TATATCACGTGTAAGT | 0.23 kcal/mol
